Source: the supplement of paper PMC8728848
The list shows a part of the results.

Columns and labels:
Test in all cases: glycan array binding signal (z-score within array); higher = stronger binding
Conditions in all cases: glycan notation: IUPAC condensed, linker removed
[1] = target: Fuc(a1-3)[Gal(b1-4)]GlcNAc
Method in brief: (§1)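 Glycan array data came from 3228 arrays in the Consortium for Functional Glycomics database, and only arrays with an available protein sequence were kept. Glycan names were put into IUPAC-condensed notation, and columns mapping to the same glycan were averaged. The binding signal is a within-array Z-score, averaged across arrays of one protein sequence run at different concentrations or buffers and across linkers. A negative Z-score can be read as non-binding.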

[2] = target: Fuc(a1-3)[Gal(b1-4)]GlcNAc(b1-4)Gal(b1-4)[Fuc(a1-3)]GlcNAc
Method in brief: as §1

[3] = target: Fuc(a1-3)[Gal(b1-4)]GlcNAc(b1-4)Gal(b1-4)[Fuc(a1-3)]GlcNAc(b1-4)Gal(b1-4)[Fuc(a1-3)]GlcNAc
Method in brief: as §1

[4] = target: Fuc(a1-3)[Gal3S(b1-4)]GlcNAc
Method in brief: as §1

[5] = target: Fuc(a1-3)[GalNAc(b1-4)]GlcNAc
Method in brief: as §1

Fuc(a1-4)GlcNAc = target: Fuc(a1-4)GlcNAc
Method in brief: as §1

Fuc(b1-3)GlcNAc = target: Fuc(b1-3)GlcNAc
Method in brief: as §1

Gal(a1-2)Gal = target: Gal(a1-2)Gal
Method in brief: as §1

Gal(a1-3)Gal = target: Gal(a1-3)Gal
Method in brief: as §1

Gal(a1-3)Gal(b1-3)GlcNAc = target: Gal(a1-3)Gal(b1-3)GlcNAc
Method in brief: as §1

Gal(a1-3)Gal(b1-4)Glc = target: Gal(a1-3)Gal(b1-4)Glc
Method in brief: as §1

Gal(a1-3)Gal(b1-4)GlcNAc = target: Gal(a1-3)Gal(b1-4)GlcNAc
Method in brief: as §1

[6] = target: Gal(a1-3)Gal(b1-4)[Fuc(a1-3)]GlcNAc
Method in brief: as §1

Gal(a1-3)GalNAc = target: Gal(a1-3)GalNAc
Method in brief: as §1

[7] = target: Gal(a1-3)[Gal(a1-4)]Gal(b1-4)GlcNAc
Method in brief: as §1

Gal(a1-4)Gal(b1-4)Glc = target: Gal(a1-4)Gal(b1-4)Glc
Method in brief: as §1

Gal(a1-4)Gal(b1-4)GlcNAc = target: Gal(a1-4)Gal(b1-4)GlcNAc
Method in brief: as §1

Gal(a1-4)GlcNAc = target: Gal(a1-4)GlcNAc
Method in brief: as §1

Gal(a1-6)Glc = target: Gal(a1-6)Glc
Method in brief: as §1

Gal(b1-2)Gal = target: Gal(b1-2)Gal
Method in brief: as §1

Gal(b1-3)Gal = target: Gal(b1-3)Gal
Method in brief: as §1

Gal(b1-3)GalNAc = target: Gal(b1-3)GalNAc
Method in brief: as §1

[8] = target: Gal(b1-3)GalNAc(b1-3)Gal(a1-4)Gal(b1-4)Glc
Method in brief: as §1

[9] = target: Gal(b1-3)GalNAc(b1-4)Gal(b1-4)Glc
Method in brief: as §1

[10] = target: Gal(b1-3)GalNAc(b1-4)[Neu5Ac(a2-3)]Gal(b1-4)Glc
Method in brief: as §1

Gal(b1-3)GlcNAc = target: Gal(b1-3)GlcNAc
Method in brief: as §1

[11] = target: Gal(b1-3)GlcNAc(b1-3)Gal(b1-4)Glc
Method in brief: as §1

[12] = target: Gal(b1-3)GlcNAc(b1-3)Gal(b1-4)GlcNAc
Method in brief: as §1

[13] = target: Gal(b1-3)[Fuc(a1-4)]GlcNAc
Method in brief: as §1

[14] = target: Gal(b1-3)[Fuc(a1-4)]GlcNAc(b1-3)Gal(b1-4)GlcNAc
Method in brief: as §1

[15] = target: Gal(b1-3)[Fuc(a1-4)]GlcNAc(b1-3)Gal(b1-4)[Fuc(a1-3)]GlcNAc
Method in brief: as §1

[16] = target: Gal(b1-3)[GlcNAc(b1-6)]GalNAc
Method in brief: as §1

[17] = target: Gal(b1-3)[Neu5Ac(a2-6)]GalNAc
Method in brief: as §1

[18] = target: Gal(b1-3)[Neu5Ac(a2-6)]GlcNAc(b1-6)Gal(b1-4)Glc
Method in brief: as §1

[19] = target: Gal(b1-3)[Neu5Ac(b2-6)]GalNAc
Method in brief: as §1

[20] = target: Gal(b1-4)GalNAc(a1-3)[Fuc(a1-2)]Gal(b1-4)GlcNAc
Method in brief: as §1

[21] = target: Gal(b1-4)GalNAc(b1-3)[Fuc(a1-2)]Gal(b1-4)GlcNAc
Method in brief: as §1

B1: PMA (Polygonatum multiflorum) (protein)
chain: LLTTTLFVFISSTRSLASTNVLYSDVGNAILNAKESLIYGDYRLDMQSDCNLVLYNKAAPYWASGTRWSWGGNCHLNLQSNGELVMYAYLGRTRIAIWRSGIISATGSYALVLKYDGALHVHGPSLWSTNATGPTTPTTASWSIDSTLWSGDVATIGPTIANGDYKLELLDTCNLTLSNTKTGQVLWYTNTTDWVHDCYVNIEGNGELKIKYLGGATLWSNKVGAGYTNNYVLGLRPDGKLDTYNAPIWSPTIGPGVHVAPAVYNASSNAVAAEGNGEKIAMVTGRAKNST
glycan array binding signal (z-score) [1]: -0.226 | glycan array binding signal (z-score) [2]: -0.221 | glycan array binding signal (z-score) [3]: -0.259 | glycan array binding signal (z-score) [4]: -0.245 | glycan array binding signal (z-score) [5]: -0.248 | glycan array binding signal (z-score) (Fuc(a1-4)GlcNAc): -0.26 | glycan array binding signal (z-score) (Fuc(b1-3)GlcNAc): -0.226 | glycan array binding signal (z-score) (Gal(a1-2)Gal): -0.237 | glycan array binding signal (z-score) (Gal(a1-3)Gal): -0.236 | glycan array binding signal (z-score) (Gal(a1-3)Gal(b1-3)GlcNAc): -0.254 | glycan array binding signal (z-score) (Gal(a1-3)Gal(b1-4)Glc): -0.238 | glycan array binding signal (z-score) (Gal(a1-3)Gal(b1-4)GlcNAc): -0.237 | glycan array binding signal (z-score) [6]: -0.24 | glycan array binding signal (z-score) (Gal(a1-3)GalNAc): -0.247 | glycan array binding signal (z-score) [7]: -0.255 | glycan array binding signal (z-score) (Gal(a1-4)Gal(b1-4)Glc): -0.244 | glycan array binding signal (z-score) (Gal(a1-4)Gal(b1-4)GlcNAc): -0.248 | glycan array binding signal (z-score) (Gal(a1-4)GlcNAc): -0.224 | glycan array binding signal (z-score) (Gal(a1-6)Glc): -0.256 | glycan array binding signal (z-score) (Gal(b1-2)Gal): -0.244 | glycan array binding signal (z-score) (Gal(b1-3)Gal): -0.195 | glycan array binding signal (z-score) (Gal(b1-3)GalNAc): -0.252 | glycan array binding signal (z-score) [8]: 0.708 | glycan array binding signal (z-score) [9]: -0.245 | glycan array binding signal (z-score) [10]: -0.251 | glycan array binding signal (z-score) (Gal(b1-3)GlcNAc): -0.255 | glycan array binding signal (z-score) [11]: -0.252 | glycan array binding signal (z-score) [12]: -0.257 | glycan array binding signal (z-score) [13]: -0.256 | glycan array binding signal (z-score) [14]: -0.257 | glycan array binding signal (z-score) [15]: -0.251 | glycan array binding signal (z-score) [16]: -0.235 | glycan array binding signal (z-score) [17]: -0.25 | glycan array binding signal (z-score) [18]: -0.259 | glycan array binding signal (z-score) [19]: -0.251 | glycan array binding signal (z-score) [20]: -0.251 | glycan array binding signal (z-score) [21]: -0.238
